Reference: a collection of fitness landscapes (doi:10.1038/s41467-024-54723-y)
In all, about 18,000 sequences were measured (“TetR repression strength (sort-seq, GFP reporter)”: median about 0.23, highest 2% from about 0.68 on). Some of the results follow.

target: TetR (class B, Tn10) (UniProt P04483); assay: TetR repression strength (sort-seq, GFP reporter) (relative to tetO2 = 1); higher = stronger repression; conditions: E. coli
Outline: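 Escherichia coli SIG10-MAX cells carried a low-copy plasmid library in which eight operator positions were randomized between a constitutive promoter and sfGFP, and TetR was expressed constitutively. After 5 h of growth at 37 °C in LB with 50 µg/mL chloramphenicol, 10^6 cells were FACS-sorted into 13 fluorescence bins, and each bin was Illumina-sequenced. Repression strength was the top bin index plus one minus the read-weighted mean bin, divided by the value for the unaltered operator. Across three independent transformations, only library members with ≥30 reads in every replicate and a CV ≤0.5 were averaged.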

Sequence of UniProt P04483 (P04483 whole entry): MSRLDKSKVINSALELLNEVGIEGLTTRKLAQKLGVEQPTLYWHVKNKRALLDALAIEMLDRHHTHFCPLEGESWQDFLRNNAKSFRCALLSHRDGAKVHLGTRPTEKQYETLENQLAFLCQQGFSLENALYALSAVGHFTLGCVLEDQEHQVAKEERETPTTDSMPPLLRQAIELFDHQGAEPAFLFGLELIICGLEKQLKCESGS

Sequence	TetR repression strength
TCCCCAATAGTCTGTGAGA	0.162
TCCCCTCTAGTCTGGGAGA	0.214
TCCCTTCTAGTAAGCGAGA	0.289
TCCCGGGAAGTGAGGGAGA	0.211
TCCCGTGGAGTGACCGAGA	0.119
TCCCGTGTAGTGTAGGAGA	0.201
TCCCGAGTAGTCTGAGAGA	0.35
TCCCGTACAGTAGTTGAGA	0.18
TCCCCAATAGTTAACGAGA	0
TCCCGTAGAGTTCAGGAGA	0.0439
TCCCGCGTAGTAGGCGAGA	0.257
TCCCTCTTAGTCCCCGAGA	0.216
TCCCTCGGAGTGAGGGAGA	0.0471
TCCCCACAAGTAAGCGAGA	0.125
TCCCAGCTAGTCTCGGAGA	0.251
TCCCACGGAGTGGGAGAGA	0.0671
TCCCCTGTAGTGGTTGAGA	0.181
TCCCAGTCAGTTTTAGAGA	0.189
TCCCCCGGAGTCTCGGAGA	0.122
TCCCCGTTAGTGCGTGAGA	0.108
TCCCATGGAGTGGCTGAGA	0.3
TCCCTGGGAGTATGCGAGA	0.183
TCCCGAGGAGTTAGGGAGA	0.301
TCCCGGGTAGTGCGGGAGA	0.0889
TCCCTCAAAGTTATTGAGA	0.182
TCCCCAGTAGTATGGGAGA	0.234

Sequence	TetR repression strength
TCCCCGCAAGTAGACGAGA	0.369
TCCCTAGGAGTTGCAGAGA	0.14
TCCCCAGGAGTTGCAGAGA	0.295
TCCCCGTCAGTAGTGGAGA	0.216
TCCCTCTGAGTGGGGGAGA	0.181
TCCCAGCGAGTGGAAGAGA	0.208
TCCCGCTGAGTGATGGAGA	0.23
TCCCATGGAGTATTCGAGA	0.185
TCCCATTCAGTGATTGAGA	0.643
TCCCTTTCAGTTGCTGAGA	0.283
TCCCATTTAGTCGGGGAGA	0.164
TCCCATAGAGTGTACGAGA	0.159
TCCCTTATAGTTCAGGAGA	0.184
TCCCAGTCAGTAGCCGAGA	0.0963
TCCCCTAAAGTAAAGGAGA	0.237
TCCCCTGCAGTCCGCGAGA	0.506
TCCCATATAGTCTGGGAGA	0.201
TCCCACAAAGTTTGCGAGA	0.144
TCCCCCTAAGTGATTGAGA	0.228
TCCCTATCAGTTATCGAGA	0.859
TCCCGATCAGTTGCGGAGA	0.155
TCCCGGAAAGTTCCGGAGA	0.0749
TCCCCTTGAGTTAGCGAGA	0.2
TCCCGGGGAGTCAGTGAGA	0.0491
TCCCGGAAAGTTATGGAGA	0.296
TCCCCAGAAGTGTGGGAGA	0.0963

Sequence	TetR repression strength
TCCCGGTTAGTTCGCGAGA	0.22
TCCCGCGAAGTATTAGAGA	0.291
TCCCGAAGAGTGCCTGAGA	0.517
TCCCCGTCAGTGAGAGAGA	0.314
TCCCTCGGAGTGCCCGAGA	0.215
TCCCAGGTAGTTCTAGAGA	0.337
TCCCGTTAAGTTTATGAGA	0.207
TCCCAGCGAGTGTGGGAGA	0.287
TCCCCTCTAGTAAACGAGA	0.546
TCCCGAGTAGTAAGGGAGA	0.198
TCCCTCCCAGTAGAGGAGA	0.177
TCCCATCAAGTGCAGGAGA	0.293
TCCCGTAAAGTCTGGGAGA	0.363
TCCCTTGGAGTTGGAGAGA	0.173
TCCCAGGGAGTTATGGAGA	0.234
TCCCGTTAAGTCTGAGAGA	0.301
TCCCCTTTAGTGTTGGAGA	0.405
TCCCTTGGAGTGCCCGAGA	0.23
TCCCATCAAGTACTTGAGA	0.307
TCCCGATGAGTCGAGGAGA	0.236
TCCCTAGAAGTGGGGGAGA	0.188
TCCCGGATAGTGGTGGAGA	0.268
TCCCCGCCAGTTCTAGAGA	0.276
TCCCATGAAGTGGAGGAGA	0.311
TCCCTCGAAGTATATGAGA	0.347
TCCCATTCAGTTGTTGAGA	0.274

Sequence	TetR repression strength
TCCCGCTTAGTGACCGAGA	0.222
TCCCTGGCAGTTGAAGAGA	0.255
TCCCTGCTAGTGGTGGAGA	0.404
TCCCATGTAGTGGACGAGA	0.325
TCCCCTACAGTTCATGAGA	0.189
TCCCCATGAGTCGTGGAGA	0.0672
TCCCGTGGAGTGGTCGAGA	0.195
TCCCCTCTAGTCGTTGAGA	0.213
TCCCGAAAAGTACGGGAGA	0.268
TCCCACCTAGTCGAAGAGA	0.292
TCCCAAGTAGTCGCCGAGA	0.193
TCCCTTAAAGTCGTGGAGA	0.112
TCCCAATCAGTTTATGAGA	0.266
TCCCAGCAAGTCTTGGAGA	0.251
TCCCCCGGAGTCATGGAGA	0.193
TCCCGTTCAGTGTATGAGA	0.285
TCCCGCAGAGTTGCCGAGA	0.0842
TCCCTGGAAGTATCAGAGA	0.165
TCCCTGATAGTACGCGAGA	0.267
TCCCGGCAAGTGGTGGAGA	0.289
TCCCACGAAGTGGCCGAGA	0.133
TCCCATAAAGTGCTCGAGA	0.225
TCCCGGGGAGTATGAGAGA	0.228
TCCCGGGGAGTTGAAGAGA	0.154
